Laboratory results reported in a compilation of properties of binary mixtures (doi:10.1016/j.molliq.2016.07.107).
The densities may have been worked out from excess volumes.

Assay: xn = mol fraction of the nth substance listed
Conditions: 298.15 K, 101 kPa

For `CCCC[NH3+].O=[N+]([O-])[O-]` + CCO, the mass density (x2 = 0.2091) was 1073.9 kg/m3, the mass density (x2 = 0.3412) was 1048.9 kg/m3 and the mass density (x2 = 0.4482) was 1024.8 kg/m3. It also gave a mass density (x2 = 0.5775) of 989.8 kg/m3, a mass density (x2 = 0.6659) of 961.5 kg/m3 and a mass density (x2 = 0.7526) of 927.4 kg/m3. For the same compound, the mass density (x2 = 0.7925) was 909.9 kg/m3, the mass density (x2 = 0.8384) was 887.8 kg/m3 and the mass density (x2 = 0.8976) was 855.8 kg/m3.
With `CC[NH3+].O=[N+]([O-])[O-]` + CCO the mass density (x2 = 0.1991) was 1154.9 kg/m3, the mass density (x2 = 0.3298) was 1115.2 kg/m3 and the mass density (x2 = 0.755) was 939 kg/m3. For the same compound, the mass density (x2 = 0.7879) was 921.6 kg/m3, the mass density (x2 = 0.839) was 892.9 kg/m3 and the mass density (x2 = 0.9059) was 851.7 kg/m3.
With `CCCC[NH3+].O=[N+]([O-])[O-]` + O the mass density (x2 = 0.2292) was 1103.7 kg/m3, the mass density (x2 = 0.5973) was 1095.4 kg/m3 and the mass density (x2 = 0.6854) was 1090.7 kg/m3. It also gave a mass density (x2 = 0.7644) of 1084.1 kg/m3, a mass density (x2 = 0.8307) of 1075.5 kg/m3 and a mass density (x2 = 0.9028) of 1059.1 kg/m3.
`CC[NH3+].O=[N+]([O-])[O-]` + O showed a mass density (x2 = 0.0594) of 1206.3 kg/m3, a mass density (x2 = 0.12) of 1204.5 kg/m3 and a mass density (x2 = 0.2565) of 1199 kg/m3. The mass density (x2 = 0.6606) was 1163 kg/m3, the mass density (x2 = 0.7762) was 1138.1 kg/m3 and the mass density (x2 = 0.8213) was 1123.6 kg/m3. The mass density (x2 = 0.9059) was 1083.7 kg/m3.
